{"source": "PubChem BioAssay AID894", "about": "(National Center for Advancing Translational Sciences (NCATS), 2007)", "note": "Values joined by “and” are separate entries in the source; they are usually repeats but may differ in a detail not shown here. Identical values can stand only once. Hit rate of the full screen: of about 150,000 compounds, about 6,500 (4.3%) were called active. The shares of active, inactive and inconclusive entries below differ from those in the screen. The call rests on the fitted dose curve; in most records, active means well fitted inhibition curve with a large enough effect (not every such curve was filed as active); inconclusive means small, poorly fitted or top-dose-only effect, or another doubt; inactive means no such curve, though single readings can be large or run the other way. Potencies beside an inconclusive call are fits to weak or partial responses and may not hold up. On the % scale 0 is the no-effect control and ±100 the full control effect; potency means the concentration at half of the fitted maximal effect; tags describe the fitted curve by direction and shape.", "data": [{"target": "15-hydroxyprostaglandin dehydrogenase [NAD(+)] (Homo sapiens) (UniProt P15428)", "sequence (P15428 whole entry, looked up)": "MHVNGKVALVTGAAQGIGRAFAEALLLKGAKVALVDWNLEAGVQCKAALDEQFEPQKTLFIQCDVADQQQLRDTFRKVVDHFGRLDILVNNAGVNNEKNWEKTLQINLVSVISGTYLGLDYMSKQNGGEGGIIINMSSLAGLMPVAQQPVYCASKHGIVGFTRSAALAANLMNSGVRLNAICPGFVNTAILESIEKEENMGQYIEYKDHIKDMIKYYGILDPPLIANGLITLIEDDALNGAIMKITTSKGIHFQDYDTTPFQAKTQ", "assay": "qHTS Assay for Inhibitors of HPGD (15-Hydroxyprostaglandin Dehydrogenase)", "conditions": "purified HPGD, NADH fluorescence kinetic, PGE2 substrate; activity change, negative = inhibition: hits give low values", "procedure,_shortened": "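20 nM HPGD preincubated 15 min at room temperature with compound in 50 mM Tris-HCl pH 8, 0.01% Tween 20. Started with 1 mM NAD+ and 30 uM prostaglandin E2; NADH fluorescence (360/450 nm) read 5 times over 30-s intervals, last minus first.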", "values": [{"smiles": "O=C(NC1CCCCC1)c1ccc(N2CCCC2=O)cc1", "Potency": "active: 8.91 µM"}, {"smiles": "Cc1cn(C2OC(COC(=O)c3ccccc3)C(O)C2O)c(=O)[nH]c1=O", "note": "(centres undefined)", "activity change, negative = inhibition": "inactive: -7.63%"}, {"smiles": "COc1ccc(-c2cc(=O)c3ccccc3n2C)cc1", "activity change, negative = inhibition": "inactive: -21.2%"}, {"smiles": "COc1cc(NC(=S)NCCC(c2ccccc2)c2ccccc2)cc(OC)c1", "activity change, negative = inhibition": "inactive: -19.8%"}, {"smiles": "CN1CCN(S(=O)(=O)c2cccc(C(=O)Nc3nc(-c4ccccc4)cs3)c2)CC1", "Potency": "inconclusive: 35.5 µM [inhibitor, single point]"}, {"smiles": "Cc1c(C(=O)Nc2ccc(-c3nnc4n3CCCCC4)cc2)oc2ccc(Br)cc12", "Potency": "inconclusive: 3.98 µM [inhibitor, partial curve]"}, {"smiles": "COc1ccc2nc(NC(=O)c3cccnc3SC)sc2c1", "activity change, negative = inhibition": "inactive: -7.34%"}, {"smiles": "Cc1cc(C)n(-c2nc3ccccc3nc2N2CCN(S(=O)(=O)c3ccc(F)c(C)c3)CC2)n1", "Potency": "inconclusive: 31.6 µM [inhibitor, partial curve]"}, {"smiles": "C/C(=N\\NC(=O)c1ccc([N+](=O)[O-])cc1)c1cc2ccccc2oc1=O", "Potency": "inconclusive: 28.2 µM [inhibitor, single point]"}, {"smiles": "CCOC(=O)CC(=O)CSc1[nH]c(=O)cc(C)c1C#N", "Potency": "active: 14.1 µM"}, {"smiles": "CCn1c(=O)cc(SCC(=O)NCc2ccc(C)cc2)c2ccccc21", "Potency": "inconclusive: 12.6 µM [inhibitor, partial curve]"}, {"smiles": "Cc1ccc(-c2cc3nc(C)cc(NCc4ccco4)n3n2)cc1", "Potency": "inconclusive: 28.2 µM [inhibitor, single point]"}, {"smiles": "Cc1cc2nc(-c3ccc(SCc4ccccc4C#N)nc3)[nH]c2cc1C", "Potency": "inconclusive: 28.2 µM [inhibitor, partial curve]"}, {"smiles": "Cc1sc2nc(-c3cccs3)nc(N3CCCN(C)CC3)c2c1C", "Potency": "inconclusive: 17.8 µM [inhibitor, partial curve]"}, {"smiles": "COc1ccccc1/C=C/C=N/n1c(COc2ccccc2)n[nH]c1=S", "Potency": "inconclusive: 2.82 µM [inhibitor, full curve]"}, {"smiles": "Cc1cc(=O)oc2cc(OCC(=O)N3CCCC(C)C3)ccc12", "note": "(centres undefined)", "Potency": "inconclusive: 12.6 µM [inhibitor, partial curve]"}, {"smiles": "CCCCc1ccc(NC(=S)NCc2cccs2)cc1", "activity change, negative = inhibition": "inactive: -21.4%"}, {"smiles": "Cc1sc(NC(=S)NC(=O)C(C)(C)C)c(C(N)=O)c1C", "Potency": "inconclusive: 28.2 µM [inhibitor, partial curve]"}, {"smiles": "COc1ccccc1Nc1nc2c(s1)CCC2", "Potency": "inconclusive: 22.4 µM [inhibitor, partial curve]"}, {"smiles": "O=C(O)c1ccc(NS(=O)(=O)c2cccc3ccccc23)cc1", "activity change, negative = inhibition": "inactive: 2.51%"}, {"smiles": "C/C=C(/C)C(=O)O[C@@H]1c2c(ccc3ccc(=O)oc23)O[C@@H]1C(C)(C)OC(C)=O", "Potency": "inconclusive: 31.6 µM [inhibitor, single point]"}, {"smiles": "Cc1ccccc1NC(=O)CSc1nnc(-c2ccco2)c(-c2ccco2)n1", "Potency": "active: 8.91 µM"}, {"smiles": "Cc1cccc(N(C(=O)c2ccc(CN3CCOCC3)o2)C(C(=O)NC(C)(C)C)c2ccc(F)cc2)c1", "note": "(centres undefined)", "activity change, negative = inhibition": "inactive: -15.2%"}, {"smiles": "CCC(=O)c1ccc(N2CCN(C(=O)c3ccc(Br)cc3)CC2)c(F)c1", "Potency": "inconclusive: 31.6 µM [inhibitor, partial curve]"}, {"smiles": "O=C(N/N=C/C=C\\c1ccccc1[N+](=O)[O-])c1cc(-c2ccc3ccccc3c2)n[nH]1", "Potency": "inconclusive: 44.7 µM [inhibitor, single point]"}, {"smiles": "Cn1c(=O)c2cc(S(=O)(=O)NC(C(=O)N3CCCCCC3)c3ccccc3)ccc2n(C)c1=O", "note": "(centres undefined)", "activity change, negative = inhibition": "inactive: -8.31%"}, {"smiles": "C[C@@H](Oc1ccc(Oc2cnc3ccc(Cl)cc3n2)cc1)C(=O)O", "Potency": "active: 17.8 µM"}, {"smiles": "Cc1ccc2[nH]c3c(=O)n(CCc4cnc[nH]4)cnc3c2c1", "Potency": "inconclusive: 35.5 µM [inhibitor, partial curve]"}, {"smiles": "CCC(c1nnnn1CCOC)N1CCN(C(=O)c2ccco2)CC1", "note": "(centres undefined)", "activity change, negative = inhibition": "inactive: -5.22%"}, {"smiles": "C=CCOC(=O)C1=C(C)NC(C)=C(C(=O)OCC=C)C1c1ccc(O)cc1", "Potency": "inconclusive: 25.1 µM [inhibitor, partial curve]"}, {"smiles": "COC(=O)c1cc(NC(=O)c2c(Cl)nc3sccn23)cc(C(=O)OC)c1", "Potency": "inconclusive: 35.5 µM [inhibitor, single point]"}, {"smiles": "Cc1cccc(N(CC(=O)Nc2ccc(-c3nc4ccc(C)cc4s3)cc2)S(C)(=O)=O)c1", "Potency": "inconclusive: 35.5 µM [inhibitor, single point]"}, {"smiles": "COc1ccc(C=NCCCN2CCOCC2)cc1", "activity change, negative = inhibition": "inactive: -7.69%"}, {"smiles": "CCC1CCCCN1c1nc(-c2ccncc2)nc2ccccc12", "note": "(centres undefined)", "Potency": "inconclusive: 35.5 µM [inhibitor, single point]"}, {"smiles": "C=CCN1c2ccccc2[C@]23C[C@@H](C(=O)OC)N(S(=O)(=O)c4ccc(C)cc4)C2=NC(C(=O)OC)=C(C(=O)OC)[C@H]13", "activity change, negative = inhibition": "inactive: -3.5%"}, {"smiles": "Cc1ccc(/C=C/C(=O)c2ccccc2)cc1", "Potency": "inconclusive: 28.2 µM [inhibitor, partial curve]"}, {"smiles": "O=[N+]([O-])c1ccc(/C=N/NC(=S)Nc2ccccc2)o1", "Potency": "active: 25.1 µM"}, {"smiles": "Cc1ccc(NC(=O)N(CCCN2CCOCC2)Cc2cc3cc4c(cc3[nH]c2=O)OCO4)cc1", "Potency": "inconclusive: 28.2 µM [inhibitor, partial curve]"}, {"smiles": "CC(C)(C)c1ccc(Cn2nnc3c(=O)[nH]c(C4CCCN(C(=O)Cc5cccs5)C4)nc32)cc1", "note": "(centres undefined)", "activity change, negative = inhibition": "inactive: -6.7%"}, {"smiles": "Cc1ccc2c(COn3nnc4ccc(S(=O)(=O)N(C)C)cc43)cc(=O)oc2c1C", "activity change, negative = inhibition": "inactive: -15.4%"}, {"smiles": "Clc1ccc(OCc2nnc(SCc3nnc(-c4ccccc4)o3)o2)c(Cl)c1", "Potency": "active: 7.94 µM"}, {"smiles": "Cc1cc(NC(=O)c2ccc(C)s2)n(-c2nc3ccccc3[nH]2)n1", "Potency": "inconclusive: 31.6 µM [inhibitor, partial curve]"}, {"smiles": "O=C(O)CSc1cccc2cccnc12", "Potency": "inconclusive: 25.1 µM [inhibitor, partial curve] and inconclusive: 31.6 µM [inhibitor, partial curve]"}, {"smiles": "Cc1cccc(S(=O)(=O)Nc2ccc(-c3nc4ccc(C)cc4s3)cc2)c1", "Potency": "inconclusive: 28.2 µM [inhibitor, partial curve]"}]}]}
